{"source": "PubChem BioAssay AID651820", "about": "(National Center for Advancing Translational Sciences (NCATS), 2012)", "note": "The whole screen tested about 340,000 compounds, of which about 12,000 (3.5%) were called active. Inconclusive means that the source gave no clear call. Such entries were picked first, then a sample of the others. The call rests on the fitted dose curve; in most records, active means well fitted inhibition curve with a large enough effect; inconclusive means small, poorly fitted or top-dose-only effect, or another doubt; inactive means no such curve, though single readings can be large or run the other way. No potency is given beside an inconclusive call; the fits are too rough. On the % scale 0 is the no-effect control and ±100 the full control effect; potency means the concentration at half of the fitted maximal effect; tags describe the fitted curve by direction and shape.", "data": [{"assay": "qHTS Assay for Inhibitors of Hepatitis C Virus (HCV)", "conditions": "Huh7.5.1 HCVcc-Cre (HCVcc is cell-culture hepatitis C virus) infection, luciferase reporter, 44 h; activity change, negative = inhibition: at 41.8 µM (top of the series) unless noted", "how_it_was_run": "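HCVcc-Cre virus at an moi near 0.5 was added right after compound to cells cultured 4 h from seeding (1,000 cells/well). Luciferase activity was determined 44 h later, 15 min after substrate addition at RT.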", "values": [{"smiles": "CCN(CC)S(=O)(=O)c1ccc(N2CCOCC2)c(NC(=O)C2=COCCO2)c1", "Potency": "inconclusive [inhibitor, single point]"}, {"smiles": "Cc1cc2nc(CCN(Cc3cccnc3)C(=S)Nc3ccccc3)[nH]c2cc1C", "Potency": "inconclusive [inhibitor, single point]"}, {"smiles": "COc1ccccc1N1CCN(C(=O)c2ccc3c(=O)n(Cc4ccco4)c(=S)[nH]c3c2)CC1", "Potency": "inconclusive [inhibitor, single point]"}, {"smiles": "COc1ccc(NC(=O)c2c(F)c(F)c(F)c(F)c2F)cc1Cl", "Potency": "inconclusive [inhibitor, single point]"}, {"smiles": "COc1ccc(CC(=O)NC(C)c2ccc(Cl)c(Cl)c2)cc1S(=O)(=O)N1CCOCC1", "note": "(configuration not stated)", "Potency": "inconclusive [inhibitor, single point]"}, {"smiles": "COCCNC(=O)c1sc2ncn(CC(=O)Nc3ccc(C)c(Cl)c3)c(=O)c2c1C", "Potency": "inconclusive [inhibitor, single point]"}, {"smiles": "COc1ccc(CCNC(=O)CSC2=NS(=O)(=O)c3cc(Cl)ccc3N2)cc1OC", "activity change, negative = inhibition": "inactive: 15.3%"}, {"smiles": "Cc1cccc(NC(=O)CN2NS(=O)(=O)c3ccccc3C2=O)c1", "activity change, negative = inhibition": "inactive: 13.1%"}, {"smiles": "Cc1ccc(F)cc1NC(=O)c1cccc(N(C)C)c1", "Potency": "inconclusive [inhibitor, single point]"}, {"smiles": "Cc1ccc(C2(c3ccc(C)cc3)CC2C(=O)NCc2cccnc2)cc1", "note": "(configuration not stated)", "Potency": "inconclusive [inhibitor, single point]"}, {"smiles": "Nc1nc(-c2ccco2)nn1C(=O)CCc1ccccc1", "activity change, negative = inhibition": "inactive: 16.8%"}, {"smiles": "Cc1cc(C)nc(NC(=O)CCN2C(=O)c3ccccc3S2(=O)=O)n1", "activity change, negative = inhibition": "inactive: 13.6%"}, {"smiles": "Cc1cc2c(c(=O)n1Cc1ccco1)C(c1ccccc1)C(C#N)=C(N)O2", "note": "(configuration not stated)", "Potency": "inconclusive [inhibitor, single point]"}, {"smiles": "CCOC(=O)CSc1nc2ccc(N3CCOCC3)cc2c(=O)n1Cc1ccc2c(c1)OCO2", "Potency": "active: 3.98 µM"}, {"smiles": "C=CCN(c1ccc(C(=O)OC)cc1)S(=O)(=O)c1ccccc1", "activity change, negative = inhibition": "inactive: 17.4%"}, {"smiles": "CCn1c(NCc2cc(Br)ccc2NS(=O)(=O)c2ccc(C)cc2)nc2ccccc21", "Potency": "active: 10 µM"}, {"smiles": "COc1c(O[C@@H]2O[C@H](CO)[C@@H](O)[C@H](O)[C@H]2O)cc2c(c1OC)-c1ccc(SC)c(=O)cc1C(NC(C)=O)CC2", "note": "(some centres not stated)", "activity change, negative = inhibition": "inactive: -4.58%"}, {"smiles": "Cc1cc(C(=O)Nc2c(F)c(F)c(F)c(F)c2F)n(-c2ccccc2)n1", "Potency": "inconclusive [inhibitor, partial curve]"}, {"smiles": "C=CCN(CC=C)S(=O)(=O)c1ccc(C(=O)Nc2nnc(CSC)o2)cc1", "Potency": "inconclusive [inhibitor, single point]"}, {"smiles": "CCN(CC)CCCn1c2c(c(SCC(=O)N3CCc4ccccc43)nc1=O)CCC2", "Potency": "inconclusive [inhibitor, full curve, poor fit]"}, {"smiles": "Cc1ccc2[nH]c(=O)c3cc(C(=O)N(CCCOC(C)C)Cc4ccco4)sc3c2c1", "Potency": "inconclusive [inhibitor, partial curve]"}, {"smiles": "CCOc1ccc(C2C3=C(CCCC3=O)Nc3ccc4ncccc4c32)cc1", "note": "(configuration not stated)", "Potency": "inconclusive [inhibitor, single point]"}, {"smiles": "CCOC(=O)Nc1ccc(Cc2ccncc2)cc1", "Potency": "inconclusive [inhibitor, single point]"}, {"smiles": "COc1ccc(-n2nnnc2SCC(=O)Nc2nc3c(s2)CCCC3)cc1", "Potency": "inconclusive [inhibitor, partial curve]"}, {"smiles": "O=C(/C=C/c1cccc(C(F)(F)F)c1)NNC(=O)c1ccncc1", "Potency": "inconclusive [inhibitor, single point]"}, {"smiles": "O=C(CN1C(=O)NC2(CCCC2)C1=O)N1CCN(Cc2ccccc2)CC1", "Potency": "inconclusive [inhibitor, full curve, poor fit]"}, {"smiles": "O=S(=O)(Nc1ccc(N2CCOCC2)cc1)c1c(F)cc(F)cc1Br", "Potency": "inconclusive [inhibitor, single point]"}, {"smiles": "O=C(Nc1ccc(F)cc1)c1ccc(CN2CCc3ccccc3C2)cc1", "Potency": "active: 5.62 µM"}, {"smiles": "COc1ccc(C2/C=C\\CN(C(=O)CC(C)(C)C)CC(=O)N2Cc2ccc(F)cc2)cc1", "note": "(configuration not stated)", "Potency": "active: 5.01 µM"}, {"smiles": "O=C(NCCN1CCOCC1)c1ccc(Cl)c(S(=O)(=O)N2CCCCCC2)c1", "activity change, negative = inhibition": "inactive: 2.39%"}, {"smiles": "C=CC[C@]12C=C(OC)C(=O)C=C1O[C@@H](c1ccc3c(c1)OCO3)[C@H]2C", "activity change, negative = inhibition": "inactive: -24.1%"}, {"smiles": "COc1cccc(CNC(=O)CSc2nc(=O)n(Cc3ccncc3)c3c2CCC3)c1", "activity change, negative = inhibition": "inactive: -19.5%"}, {"smiles": "C=CCc1ccccc1OCC(=O)N/N=C/c1ccc(OC(C)=O)cc1OC(C)=O", "Potency": "inconclusive [inhibitor, single point]"}, {"smiles": "CCCCc1cc(=O)oc2c(C)c(OCC(=O)NCC3CCC(C(=O)O)CC3)ccc12", "note": "(configuration not stated)", "activity change, negative = inhibition": "inactive: -77%"}, {"smiles": "CC(=NNc1nc2ccccc2s1)c1ncccn1", "Potency": "inconclusive [inhibitor, full curve, poor fit]"}, {"smiles": "CC1CCCCN1CCNC(=O)C1CCN(S(=O)(=O)c2cccc3cccnc23)CC1", "note": "(configuration not stated)", "activity change, negative = inhibition": "inactive: 13.5%"}, {"smiles": "Cc1ccc(CNC(=O)c2cc3c(-c4ccc(Cl)cc4)nn(C)c3s2)o1", "Potency": "inconclusive [inhibitor, single point]"}, {"smiles": "COC(=O)[C@H](CC(C)C)NC(=O)Cn1cnc2c(OCc3ccccc3)ncnc21", "Potency": "inconclusive [inhibitor, single point]"}, {"smiles": "Cc1ccc(C(=O)O/N=C(\\N)Cc2ccc([N+](=O)[O-])cc2)c(Cl)c1", "Potency": "inconclusive [inhibitor, single point]"}, {"smiles": "CCOc1ccc(S(=O)(=O)Nc2ccc3c(c2)OCO3)c2cccnc12", "activity change, negative = inhibition": "inactive: -9.01%"}, {"smiles": "Cc1noc(C)c1NC(=O)N(C)C[C@H]1Oc2ccc(NC(=O)Nc3ccc(C(F)(F)F)cc3)cc2C(=O)N([C@H](C)CO)C[C@@H]1C", "Potency": "inconclusive [inhibitor, single point]"}, {"smiles": "COc1ccc(CCNC(=S)NC(=O)c2cc(OC)c(OC)c(OC)c2)cc1OC", "Potency": "inconclusive [inhibitor, full curve, poor fit]"}, {"smiles": "CCOC(=O)[C@H]1[C@H]2COc3ccc(C)cc3[C@@H]2N2C(=O)c3cc(Br)ccc3NC(=O)[C@@]12C", "Potency": "inconclusive [inhibitor, single point]"}, {"smiles": "COC(=O)c1ccc2c(=O)n(CCO)c(=S)[nH]c2c1", "activity change, negative = inhibition": "inactive: 8.4%"}, {"smiles": "Cc1ccc(S(=O)(=O)N2CCC(C(=O)Nc3ccc(S(=O)(=O)N4CCCC4)cc3)CC2)cc1C", "Potency": "inconclusive [inhibitor, single point]"}, {"smiles": "Cc1nnc(C)c2c(C)n(-c3ccccc3)c(C)c12", "Potency": "inconclusive [inhibitor, single point]"}, {"smiles": "CCN(CC)C(=O)CSc1nc(Cc2ccccc2)nc2ccccc12", "Potency": "inconclusive [inhibitor, single point]"}, {"smiles": "COc1ccccc1NC(=O)c1ccc(C(=O)c2ccccc2)o1", "Potency": "inconclusive [inhibitor, partial curve]"}, {"smiles": "CC1CN(C(=S)Nc2ccccc2C(F)(F)F)CC(C)O1", "note": "(configuration not stated)", "Potency": "inconclusive [inhibitor, single point]"}, {"smiles": "Clc1ccc(CSc2nccn2Cc2ccccc2)cc1", "Potency": "inconclusive [inhibitor, single point]"}, {"smiles": "CCCCNC(=O)COC(=O)c1ccccc1F", "activity change, negative = inhibition": "inactive: 9.23%"}, {"smiles": "O=S(=O)(c1ccccc1Br)N1CCN(c2ncccn2)CC1", "Potency": "inconclusive [inhibitor, partial curve]"}, {"smiles": "COc1ccccc1N1CCN(Cc2cc(Br)c(O)c3ncccc23)CC1", "Potency": "active: 3.98 µM"}, {"smiles": "COc1cc(OC)c2c(=O)c(OC)c(-c3ccc(OC)c(OC)c3)oc2c1", "Potency": "active: 1.12 µM"}, {"smiles": "CC(C)(C)c1cnnn1-c1ccc(NC(=O)c2ccc3c(c2)OCO3)cc1", "Potency": "inconclusive [inhibitor, partial curve]"}, {"smiles": "CCOC(=O)N1CCC(Nc2cc(C)nc3c(-c4ccccc4OC)c(C)nn23)CC1", "Potency": "inconclusive [inhibitor, partial curve]"}, {"smiles": "O=C(Nc1cc2c3c(c1)CC(=O)N3CCC2)c1ccccc1Br", "Potency": "active: 10 µM"}, {"smiles": "CCCCn1c(N)c(N(CCOC)C(=O)COC(=O)c2cc(CCC)c(C)s2)c(=O)[nH]c1=O", "activity change, negative = inhibition": "inactive: -13.6%"}, {"smiles": "CCOC(=O)c1cc2c(N)c(C(=O)c3cc(C#N)c(SC)nc3C)sc2nc1C", "Potency": "inconclusive [inhibitor, full curve]"}, {"smiles": "O=C(CSc1nnc(SCc2ccccc2)s1)N/N=C/c1ccc(C(=O)O)cc1", "activity change, negative = inhibition": "inactive: 24.4%"}, {"smiles": "O=C(N/N=C/c1ccc(N2CCOCC2)c([N+](=O)[O-])c1)c1ccc(F)cc1", "activity change, negative = inhibition": "inactive: -27.3%"}, {"smiles": "CCOC(=O)c1sc(NC(=O)CCN2CCCCCC2)c(C(=O)OCC)c1C", "Potency": "inconclusive [inhibitor, single point]"}, {"smiles": "C#CCOCCOCCOCCNc1nc(N2CCN(C(=O)CCCCCCCCCCNC(=O)[C@H](CO)n3cc(CCCSC)nn3)CC2)nc(N2CCN(C(=O)CCCCCCCCCCNC(=O)[C@H](CO)n3cc(CCCSC)nn3)CC2)n1", "activity change, negative = inhibition": "inactive: 10.2%"}, {"smiles": "Cc1ccc(CNC(=O)CN2C(=O)C3(OCCCO3)c3ccccc32)cc1", "activity change, negative = inhibition": "inactive: -15.4%"}, {"smiles": "COc1ccc(-n2nc(C(=O)NCC(=O)NC3CCCC(C)C3C)c3ccccc3c2=O)cc1", "note": "(configuration not stated)", "Potency": "inconclusive [inhibitor, single point]"}, {"smiles": "Cc1cc(C)c2[nH]c(=O)c(CN(CC3CCCO3)S(=O)(=O)c3ccc4c(c3)OCCO4)cc2c1", "note": "(configuration not stated)", "Potency": "inconclusive [inhibitor, single point]"}, {"smiles": "CC1(C)Cc2c(sc(NC(=O)C(=O)NCC3CCCO3)c2C(N)=O)CO1", "note": "(configuration not stated)", "activity change, negative = inhibition": "inactive: 9.32%"}]}]}
